Measurements as given in a collection of fitness landscapes (doi:10.1038/s41467-024-54723-y).
The full ranking holds about 18,000 sequences; the median of “TetR repression strength (sort-seq, GFP reporter)” is about 0.23, and the highest 2% start at about 0.68. Some of the results follow.

Biological target: TetR (class B, Tn10) (UniProt P04483)
Assay: TetR repression strength (sort-seq, GFP reporter) (relative to tetO2 = 1); higher = stronger repression
Details: E. coli
Method in brief: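 E. coli SIG10-MAX carried a low-copy plasmid library with eight randomized operator positions between a constitutive promoter and sfGFP, with TetR constitutively expressed. Cells grew 5 h at 37 °C in LB with 50 µg/mL chloramphenicol, then 10^6 cells were FACS-sorted into 13 fluorescence bins, each Illumina-sequenced. Repression strength is the top bin index plus one minus the read-weighted mean bin, divided by the wild-type operator value. Three independent transformations; variants with ≥30 reads in all replicates and CV ≤0.5 were averaged.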

UniProt P04483, sequence (P04483 whole entry): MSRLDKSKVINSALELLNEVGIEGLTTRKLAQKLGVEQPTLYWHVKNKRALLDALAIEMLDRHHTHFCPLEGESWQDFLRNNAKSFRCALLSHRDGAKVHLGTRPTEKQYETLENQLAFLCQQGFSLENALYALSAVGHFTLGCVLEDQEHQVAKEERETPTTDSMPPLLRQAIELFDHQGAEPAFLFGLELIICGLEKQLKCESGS

Q: TCCCGCATAGTCCGTGAGA was tested. Which TetR repression strength did it give?
A: 0.189

Q: For TCCCTAAGAGTAGTGGAGA, which TetR repression strength is on record?
A: 0.121

Q: With TCCCTCCTAGTGTCAGAGA as the sequence, how does the TetR repression strength read?
A: 0.303

Q: Which TetR repression strength does the source give for TCCCAAGGAGTCGAAGAGA here?
A: 0.225

Q: For TCCCCGGTAGTACAAGAGA, which TetR repression strength is on record?
A: 0.346

Q: Which TetR repression strength does the source give for TCCCAGTTAGTGCGTGAGA here?
A: 0.315

Q: With TCCCGTTTAGTCAAGGAGA as the sequence, how does the TetR repression strength read?
A: 0.241

Q: How did the TetR repression strength turn out when TCCCAATCAGTTTTTGAGA was run?
A: 0.351

Q: How did the TetR repression strength turn out when TCCCGCACAGTGTCAGAGA was run?
A: 0.307

Q: For TCCCAGGTAGTCGATGAGA, which TetR repression strength is on record?
A: 0.187

Q: How did the TetR repression strength turn out when TCCCGGGTAGTCGAGGAGA was run?
A: 0.313

Q: For TCCCATCCAGTTGGTGAGA, which TetR repression strength is on record?
A: 0.0259

Q: With TCCCGCCAAGTAGGAGAGA as the sequence, how does the TetR repression strength read?
A: 0.555

Q: With TCCCGCTTAGTTATCGAGA as the sequence, how does the TetR repression strength read?
A: 0.393

Q: For TCCCTATCAGTGAAGGAGA, which TetR repression strength is on record?
A: 0.51

Q: Which TetR repression strength does the source give for TCCCACCAAGTTACGGAGA here?
A: 0.268

Q: Which TetR repression strength does the source give for TCCCCGGCAGTAGTCGAGA here?
A: 0.0724

Q: With TCCCAGTGAGTGTTTGAGA as the sequence, how does the TetR repression strength read?
A: 0.378

Q: TCCCTTTTAGTCCGAGAGA was tested. Which TetR repression strength did it give?
A: 0.24

Q: TCCCGTGAAGTAGAAGAGA was tested. Which TetR repression strength did it give?
A: 0.212

Q: TCCCCCATAGTAAGCGAGA was tested. Which TetR repression strength did it give?
A: 0.296

Q: Which TetR repression strength does the source give for TCCCTTGGAGTAAAGGAGA here?
A: 0.111

Q: How did the TetR repression strength turn out when TCCCGCTAAGTGGCGGAGA was run?
A: 0.273

Q: With TCCCAGATAGTTAGGGAGA as the sequence, how does the TetR repression strength read?
A: 0.207

Q: Which TetR repression strength does the source give for TCCCCAAAAGTCGTCGAGA here?
A: 0.212

Q: How did the TetR repression strength turn out when TCCCTACGAGTTCAAGAGA was run?
A: 0.439

Q: With TCCCGTTCAGTCGTGGAGA as the sequence, how does the TetR repression strength read?
A: 0.631

Q: TCCCGCAGAGTTCGAGAGA was tested. Which TetR repression strength did it give?
A: 0.262

Q: Which TetR repression strength does the source give for TCCCATTTAGTTAAAGAGA here?
A: 0.327

Q: With TCCCCAGCAGTAGCTGAGA as the sequence, how does the TetR repression strength read?
A: 0.138

Q: With TCCCAACGAGTGATGGAGA as the sequence, how does the TetR repression strength read?
A: 0.333

Q: With TCCCTGCGAGTTAGGGAGA as the sequence, how does the TetR repression strength read?
A: 0.206

Q: How did the TetR repression strength turn out when TCCCCGTCAGTGCGCGAGA was run?
A: 0.229

Q: TCCCACTTAGTGGATGAGA was tested. Which TetR repression strength did it give?
A: 0.239

Q: For TCCCATGGAGTTAGAGAGA, which TetR repression strength is on record?
A: 0.195

Q: With TCCCACGCAGTGGTGGAGA as the sequence, how does the TetR repression strength read?
A: 0.325

Q: For TCCCCCCGAGTAACAGAGA, which TetR repression strength is on record?
A: 0.199

Q: With TCCCGCGCAGTTATAGAGA as the sequence, how does the TetR repression strength read?
A: 0.374

Q: How did the TetR repression strength turn out when TCCCCAGTAGTATAGGAGA was run?
A: 0.0681

Q: How did the TetR repression strength turn out when TCCCAGATAGTGTTGGAGA was run?
A: 0.16

Q: With TCCCGCCTAGTAACGGAGA as the sequence, how does the TetR repression strength read?
A: 0.199

Q: TCCCAGACAGTACAGGAGA was tested. Which TetR repression strength did it give?
A: 0.118

Q: TCCCTTATAGTAACTGAGA was tested. Which TetR repression strength did it give?
A: 0.429

Q: For TCCCATCGAGTGGTAGAGA, which TetR repression strength is on record?
A: 0.233

Q: For TCCCAGGGAGTACTGGAGA, which TetR repression strength is on record?
A: 0.189

Q: TCCCTGCTAGTATGAGAGA was tested. Which TetR repression strength did it give?
A: 0.134

Q: With TCCCGCTCAGTTGGGGAGA as the sequence, how does the TetR repression strength read?
A: 0.186

Q: How did the TetR repression strength turn out when TCCCTATTAGTATTTGAGA was run?
A: 0.241

Q: TCCCGTGCAGTTGAAGAGA was tested. Which TetR repression strength did it give?
A: 0.0844

Q: How did the TetR repression strength turn out when TCCCATCCAGTCAAGGAGA was run?
A: 0.595

Q: For TCCCGGCGAGTCAGGGAGA, which TetR repression strength is on record?
A: 0.338

Q: Which TetR repression strength does the source give for TCCCTACTAGTTAATGAGA here?
A: 0.276

Q: TCCCCACGAGTATTGGAGA was tested. Which TetR repression strength did it give?
A: 0.191

Q: TCCCCCAGAGTTGGTGAGA was tested. Which TetR repression strength did it give?
A: 0.34

Q: With TCCCGGGCAGTGGTGGAGA as the sequence, how does the TetR repression strength read?
A: 0.379

Q: How did the TetR repression strength turn out when TCCCGATCAGTCCACGAGA was run?
A: 0.0292

Q: With TCCCAGGCAGTGGCCGAGA as the sequence, how does the TetR repression strength read?
A: 0.168

Q: Which TetR repression strength does the source give for TCCCCCTAAGTTATAGAGA here?
A: 0.525

Q: For TCCCTTTGAGTCATTGAGA, which TetR repression strength is on record?
A: 0.0867

Q: How did the TetR repression strength turn out when TCCCAACCAGTGGTGGAGA was run?
A: 0.177

Q: With TCCCATATAGTATGGGAGA as the sequence, how does the TetR repression strength read?
A: 0.0452

Q: TCCCATACAGTTTGTGAGA was tested. Which TetR repression strength did it give?
A: 0.294

Q: Which TetR repression strength does the source give for TCCCGTGGAGTAGTGGAGA here?
A: 0.102

Q: Which TetR repression strength does the source give for TCCCTAGGAGTGGTCGAGA here?
A: 0.402

Q: For TCCCCGGTAGTTTGCGAGA, which TetR repression strength is on record?
A: 0.971

Q: How did the TetR repression strength turn out when TCCCAATGAGTCGCCGAGA was run?
A: 0.308

Q: TCCCTATCAGTGAAAGAGA was tested. Which TetR repression strength did it give?
A: 0.784

Q: How did the TetR repression strength turn out when TCCCCTAGAGTGTAGGAGA was run?
A: 0.252

Q: For TCCCGTTTAGTCGTGGAGA, which TetR repression strength is on record?
A: 0.225

Q: TCCCAGACAGTGACAGAGA was tested. Which TetR repression strength did it give?
A: 0.207

Q: How did the TetR repression strength turn out when TCCCGAACAGTGGGGGAGA was run?
A: 0.367

Q: TCCCGTCTAGTACGGGAGA was tested. Which TetR repression strength did it give?
A: 0.189

Q: For TCCCATCCAGTGATGGAGA, which TetR repression strength is on record?
A: 0.248

Q: For TCCCAATTAGTTGTGGAGA, which TetR repression strength is on record?
A: 0.403

Q: Which TetR repression strength does the source give for TCCCGAGGAGTCGCGGAGA here?
A: 0.199

Q: TCCCGTGTAGTAATTGAGA was tested. Which TetR repression strength did it give?
A: 0.227

Q: TCCCAGTCAGTACGGGAGA was tested. Which TetR repression strength did it give?
A: 0.552

Q: Which TetR repression strength does the source give for TCCCGACGAGTGTGGGAGA here?
A: 0.138

Q: With TCCCTTGGAGTTGATGAGA as the sequence, how does the TetR repression strength read?
A: 0.346

Q: TCCCTGGGAGTTCGCGAGA was tested. Which TetR repression strength did it give?
A: 0.205

Q: How did the TetR repression strength turn out when TCCCTGAAAGTGAACGAGA was run?
A: 0.423

Q: How did the TetR repression strength turn out when TCCCGATCAGTCAGCGAGA was run?
A: 0.216

Q: With TCCCGGGCAGTGACCGAGA as the sequence, how does the TetR repression strength read?
A: 0.415

Q: Which TetR repression strength does the source give for TCCCAGCGAGTGATGGAGA here?
A: 0.255

Q: TCCCGGTTAGTCATGGAGA was tested. Which TetR repression strength did it give?
A: 0.275

Q: For TCCCCTTGAGTGGGAGAGA, which TetR repression strength is on record?
A: 0.279

Q: How did the TetR repression strength turn out when TCCCAGTGAGTTCAAGAGA was run?
A: 0.338

Q: TCCCTTCCAGTTACCGAGA was tested. Which TetR repression strength did it give?
A: 0.351

Q: How did the TetR repression strength turn out when TCCCCTTGAGTAAAGGAGA was run?
A: 0.242

Q: For TCCCCTGAAGTGCGTGAGA, which TetR repression strength is on record?
A: 0.111

Q: With TCCCAATTAGTGATAGAGA as the sequence, how does the TetR repression strength read?
A: 0.605

Q: Which TetR repression strength does the source give for TCCCTATGAGTGGGAGAGA here?
A: 0.363

Q: With TCCCAGGGAGTAGGGGAGA as the sequence, how does the TetR repression strength read?
A: 0.204

Q: Which TetR repression strength does the source give for TCCCTCTGAGTCTTGGAGA here?
A: 0.159

Q: How did the TetR repression strength turn out when TCCCCAGCAGTGGTAGAGA was run?
A: 0.234

Q: How did the TetR repression strength turn out when TCCCCGGTAGTGTGTGAGA was run?
A: 0.303

Q: For TCCCAATGAGTTATCGAGA, which TetR repression strength is on record?
A: 0.368

Q: For TCCCGGTTAGTTACAGAGA, which TetR repression strength is on record?
A: 0.268

Q: How did the TetR repression strength turn out when TCCCGACGAGTAGTCGAGA was run?
A: 0.0891

Q: How did the TetR repression strength turn out when TCCCAGGTAGTGGAAGAGA was run?
A: 0.386

Q: Which TetR repression strength does the source give for TCCCGAAAAGTTAGTGAGA here?
A: 0.417

Q: TCCCAGGTAGTTTATGAGA was tested. Which TetR repression strength did it give?
A: 0.12
